We go through 33 variants from the GPR68 mutational scans of Howard et al. (2025).

The labels stand for the following.
B1: GPR68, Q15743 (parent)
chain: MGNITADNSSMSCTIDHTIHQTLAPVVYVTVLVVGFPANCLSLYFGYLQIKARNELGVYLCNLTVADLFYICSLPFWLQYVLQHDNWSHGDLSCQVCGILLYENIYISVGFLCCISVDRYLAVAHPFRFHQFRTLKAAVGVSVVIWAKELLTSIYFLMHEEVIEDENQHRVCFEHYPIQAWQRAINYYRFLVGFLFPICLLLASYQGILRAVRRSHGTQKSRKDQIQRLVLSTVVIFLACFLPYHVLLLVRSVWEASCDFAKGVFNAYHFSLLLTSFNCVADPVLYCFVSETTHRDLARLRGACLAFLTCSRTGRAREAYPLGAPEASGKSGAQGEEPELLTKLHPAFQTPNSPGSGGFPTGRLA

Series [1] covers variants of B1. Kind of series: cAMP reporter score (Enrich2 score, wild type = 0); higher = more signal; HEK293T, FACS bins.
In series [2] the parent is B1. In words: surface expression score (Enrich2 score, wild type = 0); higher = more signal; HEK293T, FACS bins.

Scores with a large standard error are left out. The source holds two more conditions with little spread; they are left out. Names with del lack the residues named; names with ins carry added residues between the positions named. For some assays here: The concentration of ogerin is not given here.

Consider A203G, for which the cAMP reporter score is 0.101 in series [1] (pH 5.5); -0.623 in series [1] (pH 6); -0.43 in series [1] (pH 6.5, modulator: ogerin). The surface expression score in series [2] amounted to 1.21.
Regarding A203Y, the cAMP reporter score in series [1] (pH 5.5) is 0.829; in series [1] (pH 6), 1.61; in series [1] (pH 6, modulator: ogerin), 1.29; in series [1] (pH 6.5, modulator: ogerin), 1.56. The surface expression score in series [2] was found to be 1.2.
As to A203Q, the cAMP reporter score in series [1] (pH 5.5) is -0.423; in series [1] (pH 6), -0.648; in series [1] (pH 6, modulator: ogerin), -0.642; in series [1] (pH 6.5, modulator: ogerin), -0.432.
On to A203K, for which the cAMP reporter score is -1.15 in series [1] (pH 5.5); -0.912 in series [1] (pH 6); -0.492 in series [1] (pH 6, modulator: ogerin). Besides, the surface expression score in series [2] was -1.76.
As for A203N, the cAMP reporter score in series [1] (pH 5.5) is 1.85; in series [1] (pH 6) it was 0.119; in series [1] (pH 6.5, modulator: ogerin) it was -1.05.
Regarding A203C, the cAMP reporter score is -0.622 in series [1] (pH 5.5); -0.497 in series [1] (pH 6); 0.033 in series [1] (pH 6, modulator: ogerin); -0.245 in series [1] (pH 6.5, modulator: ogerin). Further, in series [2], the surface expression score is -0.139.
A203M: the cAMP reporter score in series [1] (pH 5.5) was found to be 0.863; in series [1] (pH 6, modulator: ogerin) it was 0.421; in series [1] (pH 6.5, modulator: ogerin), 0.949. Moreover, in series [2], the surface expression score stood at 1.42.
As to A203S, the cAMP reporter score in series [1] (pH 5.5) is 1.11; in series [1] (pH 6) it was -0.214; in series [1] (pH 6, modulator: ogerin), 0.72; in series [1] (pH 6.5, modulator: ogerin), 0.863. In series [2], the surface expression score stood at 0.784.
The like results for A203D were, in that order, -0.866, -0.663, -1.18, -1.15 and -1.38.
With A203L, the cAMP reporter score is -0.03 in series [1] (pH 5.5); 0.609 in series [1] (pH 6, modulator: ogerin); -0.328 in series [1] (pH 6.5, modulator: ogerin). The surface expression score in series [2] was 1.04.
For L202M, the cAMP reporter score in series [1] (pH 5.5) was -0.037; in series [1] (pH 6), -0.293; in series [1] (pH 6, modulator: ogerin), -0.041; in series [1] (pH 6.5, modulator: ogerin), 0.265. Also, the surface expression score in series [2] was -0.874.
In the case of L202Y, the cAMP reporter score is -0.917 in series [1] (pH 5.5); -1.98 in series [1] (pH 6); -0.394 in series [1] (pH 6, modulator: ogerin); -1.51 in series [1] (pH 6.5, modulator: ogerin). The surface expression score in series [2] was -1.9.
As to L202K, the cAMP reporter score in series [1] (pH 5.5) was -0.944; in series [1] (pH 6), -1.84; in series [1] (pH 6, modulator: ogerin), -0.5; in series [1] (pH 6.5, modulator: ogerin), -1.13.
In the case of L202A, the cAMP reporter score in series [1] (pH 5.5) is 0.387; in series [1] (pH 6, modulator: ogerin), 0.702; in series [1] (pH 6.5, modulator: ogerin), 1.34. Further, in series [2], the surface expression score stood at 0.037.
Take L202E: the cAMP reporter score in series [1] (pH 5.5) is -0.847; in series [1] (pH 6), -1.28; in series [1] (pH 6, modulator: ogerin), -1.07; in series [1] (pH 6.5, modulator: ogerin), -1.29. Moreover, the surface expression score in series [2] was -2.65.
The like results for L202G were, in that order, -0.003, 1.17, 0.929, 1.9 and -0.927.
L202W: the cAMP reporter score in series [1] (pH 5.5) was determined as 0.234; in series [1] (pH 6) it was 0.884; in series [1] (pH 6, modulator: ogerin), 0.768; in series [1] (pH 6.5, modulator: ogerin) it was 1.57. In addition, the surface expression score in series [2] came to 0.391.
In the case of L202D, the cAMP reporter score in series [1] (pH 5.5) was -2.52; in series [1] (pH 6), -1.29; in series [1] (pH 6.5, modulator: ogerin), -2.4. The surface expression score in series [2] is -3.35.
Take L202V: the cAMP reporter score in series [1] (pH 5.5) turned out to be 0.768; in series [1] (pH 6) it was 0.155; in series [1] (pH 6, modulator: ogerin), 0.583; in series [1] (pH 6.5, modulator: ogerin) it was 1.06. The surface expression score in series [2] was -0.224.
L202S: the cAMP reporter score in series [1] (pH 5.5) is -0.029; in series [1] (pH 6.5, modulator: ogerin), -0.369. In addition, the surface expression score in series [2] is -2.48.
As to L202F, the cAMP reporter score in series [1] (pH 5.5) is 0.621; in series [1] (pH 6, modulator: ogerin), 0.039; in series [1] (pH 6.5, modulator: ogerin) it was 0.475. Moreover, the surface expression score in series [2] is -0.114.
With L202T, the cAMP reporter score amounted to 1.47 in series [1] (pH 5.5); 1.56 in series [1] (pH 6); 1.22 in series [1] (pH 6, modulator: ogerin); 2.31 in series [1] (pH 6.5, modulator: ogerin). Also, the surface expression score in series [2] is -0.078.
The matching figures for L202Q: -0.765, -0.684, -1.76, -0.978 and -1.96.
The matching figures for L202I: 1.01, -0.471, 1.1, 1.96 and 1.16.
The matching figures for L202C: 1.28, 2.36, 1.96, 3.19 and 0.802.
In the case of L202H, the cAMP reporter score in series [1] (pH 5.5) was 0.832; in series [1] (pH 6), 0.592; in series [1] (pH 6.5, modulator: ogerin) it was -0.433. Further, the surface expression score in series [2] is -1.22.
Take L200del: the cAMP reporter score is -1.2 in series [1] (pH 5.5); -0.421 in series [1] (pH 6); -1.29 in series [1] (pH 6, modulator: ogerin); -1.28 in series [1] (pH 6.5, modulator: ogerin). For the same variant, the surface expression score in series [2] was -1.5.
The matching figures for S204_Y205insG: -1.5, -1.55, -0.952, -0.802 and -1.89.
The matching figures for C199del: -1.22, -1.28, -1.83, -1.01 and -2.39.
The like results for S204del were, in that order, -2.18, -1.48, -1.43, -0.871 and -1.98.
In the case of L195_P197del, the cAMP reporter score in series [1] (pH 5.5) was -0.871; in series [1] (pH 6), -1.22; in series [1] (pH 6, modulator: ogerin), -1.05; in series [1] (pH 6.5, modulator: ogerin), -0.848. Besides, the surface expression score in series [2] was -3.41.
Turning to C199_L200del, the figures for the cAMP reporter score in series [1] (pH 5.5) and in series [1] (pH 6) were -0.403 and -0.545, respectively. In series [2], the surface expression score was -2.03.
Consider Q206_G207insG, for which the cAMP reporter score is -1.11 in series [1] (pH 5.5); -1.35 in series [1] (pH 6); -2.07 in series [1] (pH 6, modulator: ogerin); -1.34 in series [1] (pH 6.5, modulator: ogerin). In addition, the surface expression score in series [2] was -2.46.
